# Measurements as given in PubChem BioAssay AID894 (National Center for Advancing Translational Sciences (NCATS), 2007).
# Values joined by “and” are separate entries in the source; they are usually repeats but may differ in a detail not shown here. Equal values may be shown once. Out of some 150,000 compounds screened, about 6,500 (4.3%) were called active. About 12% were inconclusive and are not listed. Calls follow the shape of the dose curve; as a rule, active = well fitted inhibition curve with a large enough effect (not every such curve was filed as active); inconclusive = small, poorly fitted or top-dose-only effect, or another doubt; inactive = no such curve, though single readings can be large or run the other way. This is a selection; strong and weak results do not stand in their true shares. A structure can be active in one record and inactive in another.
# Target: 15-hydroxyprostaglandin dehydrogenase [NAD(+)] (Homo sapiens) (UniProt P15428)
# Sequence of UniProt P15428 (P15428 whole entry, looked up): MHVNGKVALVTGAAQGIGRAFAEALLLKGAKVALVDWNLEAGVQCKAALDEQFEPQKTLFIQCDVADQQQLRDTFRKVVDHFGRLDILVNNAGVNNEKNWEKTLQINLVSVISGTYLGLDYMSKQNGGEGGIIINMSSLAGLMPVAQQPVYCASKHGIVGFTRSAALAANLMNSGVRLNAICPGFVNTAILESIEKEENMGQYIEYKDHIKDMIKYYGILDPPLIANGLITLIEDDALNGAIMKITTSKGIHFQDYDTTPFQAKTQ
# Assay: qHTS Assay for Inhibitors of HPGD (15-Hydroxyprostaglandin Dehydrogenase)
# Details: purified HPGD, NADH fluorescence kinetic, PGE2 substrate; activity change, negative = inhibition: hits give low values
# In short: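 20 nM HPGD preincubated 15 min at room temperature with compound in 50 mM Tris-HCl pH 8, 0.01% Tween 20. Started with 1 mM NAD+ and 30 uM prostaglandin E2; NADH fluorescence (360/450 nm) read 5 times over 30-s intervals, last minus first.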
# % is scaled to controls: 0 for no effect and ±100 for the full control effect; potency is read from the fitted curve at half-maximal effect.
Structure (SMILES),"activity change, negative = inhibition",Potency
CCOC(=O)C(C)Oc1cccc2c(=O)n(CC(=O)NCc3ccc4c(c3)OCO4)ccc12 (stereo not drawn),inactive: 45.5%,–
CN1CCN2c3ccccc3Cc3ccccc3C2C1 (stereo not drawn),inactive: -13.1% and inactive: -5.99%,–
CC(C)NNC(=O)c1ccncc1,inactive: -20%,–
CCOC(=O)c1ccc(N2Cc3ccccc3C2=NC(=O)c2cccs2)cc1,inactive: 278%,–
CC(=O)N=c1sc(S(N)(=O)=O)nn1C,inactive: -16%,–
O=C1c2cccc(O)c2C(=O)c2c(O)cccc21,inactive: -0.0357% and inactive: -15.3%,–
CCOC(=O)/C=c1\s/c(=C\c2ccc(C#N)cc2)c(=O)n1CC(=O)NCc1ccco1,inactive: 38.2%,–
COc1ccc(-c2cc(=O)c3c(OC)c(OC)c(OC)c(OC)c3o2)cc1OC,inactive: -29.8%,–
CN(Cc1cnc2nc(N)nc(N)c2n1)c1ccc(C(=O)NC(CCC(=O)O)C(=O)O)cc1 (stereo not drawn),inactive: -20.3%,–
COc1ccccc1N(O)C1CC(=O)N(c2ccc(Br)cc2)C1=O (stereo not drawn),–,active: 28.2 µM
C=CCn1c(=NC(=O)c2ccco2)sc2cc(C(=O)OC)ccc21,inactive: 194%,–
CCCCC/C=C\C/C=C\CCCCCCCC(=O)O,inactive: -11.6%,–
O=C(O)c1cc2cc(F)ccc2[nH]1,inactive: -26.9%,–
COc1ccccc1/C=C1\SC(=O)N(CCC(=O)NNC(=O)c2ccccc2Cl)C1=O,inactive: 48.1%,–
CN(C(=O)CCCOc1ccc2[nH]c(=O)ccc2c1)C1CCCCC1,inactive: -22.4%,–
Cc1ccsc1/C=C1/SC(N2CCOCC2)=NC1=O,inactive: -13.8%,–
COc1ccc(/C=C(/NC(=O)c2ccccc2)C(=O)N/N=C/c2sccc2C)cc1,inactive: -26%,–
COc1ccc(Br)c2oc(SC)cc(=O)c12,inactive: -28.6%,–
Cc1ccc(C)c2[nH]c(=O)c(CN(CC3CCCO3)S(=O)(=O)c3ccc4c(c3)OCCO4)cc12 (stereo not drawn),inactive: 55.3%,–
Cc1ccc(CNC(=O)[C@H](C)[C@@H]2C[C@@]2(C)[C@@H](NC(=O)OCc2ccccc2)c2ccccc2)o1,inactive: -19.3%,–
Cc1cc2nc(-c3cccc(NC(=O)c4ccc(Br)o4)c3)oc2cc1C,inactive: 33%,–
O=C(c1cc2ccccc2o1)N1CCCCCC1,–,active: 7.94 µM

Structure (SMILES),"activity change, negative = inhibition",Potency
O=c1cc(-c2ccccc2Cl)oc2c(Br)ccc(O)c12,inactive: -27.9%,–
CCOc1ccc2nc(NC(=O)c3ccc(OC)c(S(=O)(=O)N4CCOCC4)c3)sc2c1,inactive: 569%,–
C[C@@H](C(=O)O)c1ccc(C(=O)c2cccs2)cc1,inactive: -17.5%,–
N=C(N)SCc1nc2ccccc2c(=O)n1-c1ccccc1,inactive: -24.9%,–
O=C(NCc1ccccc1)c1cc2ccccc2o1,–,active: 17.8 µM
Cc1ccc(S(=O)(=O)N(CCCN2CCCC2=O)Cc2cc3c(C)ccc(C)c3[nH]c2=O)cc1,inactive: 30.8%,–
COc1ccc(-c2cc(=O)c3cc(F)ccc3[nH]2)cc1,inactive: -15.6%,–
CCCNC(=O)C1CCN(S(=O)(=O)c2c(C)noc2/C=C\c2ccc(OC)cc2)CC1,inactive: 130%,–
Cc1ccc(-c2cnn(-c3cccc([N+](=O)[O-])c3)c2N)cc1,–,active: 35.5 µM
Oc1cc2c(cc1O)C(c1ccccc1)CNCC2 (stereo not drawn),inactive: -13.7%,–
CC(=O)OCC1=C(C(=O)O)N2C(=O)[C@@H](NC(=O)Cc3cccs3)[C@@H]2SC1,inactive: -7.04%,–
COc1cc(/C=C/C(=O)/C=C(O)/C=C/c2ccc(O)c(OC)c2)ccc1O,–,active: 22.4 µM
COc1cc2c(cc1OC)C(C)N(C(=O)c1cc3c(=O)oc4ccc(C)cc4c3s1)CC2 (stereo not drawn),inactive: 368%,–
NC[C@@H]1O[C@H](C23CC4CC(CC(C4)C2)C3)Cc2c1ccc(O)c2O,inactive: -15.4%,–
C[C@@](Cc1ccc(O)c(O)c1)(NN)C(=O)O,inactive: -3.01%,–
CCN(CC)c1ccc(NC(=O)c2ccccc2Br)cc1S(=O)(=O)Nc1ccccc1OC,–,active: 2.24 µM
CCOC(=O)O[C@@H](C)OC(=O)[C@@H]1N2C(=O)[C@@H](NC(=O)[C@@H](N)c3ccccc3)[C@H]2SC1(C)C,inactive: -9.14%,–
COc1ccc(/C=C(\NC(=O)c2ccc(OC)c(OC)c2)C(=O)NCCc2c[nH]c3ccccc23)cc1,inactive: -11.3%,–
O=C(c1ccc(F)cc1)C1CCN(CCn2c(=O)[nH]c3ccccc3c2=O)CC1,inactive: -17%,–
C[C@H](C(=O)O)c1cccc(C(=O)c2ccccc2)c1,inactive: -16.7%,–
Clc1ccc(COn2c(-c3ccc(Cl)cc3)nc3ccccc32)cc1,inactive: 32%,–
COc1cccc([C@@H]2Oc3ccc(OC)cc3C(=O)[C@H]2OC(=O)NCc2ccc3c(c2)OCO3)c1,inactive: -23.2%,–

Structure (SMILES),"activity change, negative = inhibition",Potency
N[C@@H](Cc1cc(I)c(Oc2ccc(O)c(I)c2)c(I)c1)C(=O)O,inactive: -10.3%,–
CCOC(=O)c1c(C)n(C)c2ccc(OCCN(C)C)cc12,inactive: -3.75%,–
N#Cc1cc2nc(O)c(O)nc2cc1[N+](=O)[O-],inactive: -25.7%,–
COc1cc(C(C)=O)ccc1Oc1ncnc2c1cnn2-c1ccc(F)cc1,–,active: 15.8 µM
CC(=O)COc1ccc2c3c(c(=O)oc2c1)CCCC3,inactive: 222%,–
Nc1nc2ncc(CNc3ccc(C(=O)N[C@@H](CCC(=O)O)C(=O)O)cc3)nc2c(=O)[nH]1,inactive: -17.6%,–
Clc1ccc(-c2nc3ccccc3n2OCc2ccccc2)cc1,inactive: 33.1%,–
O=C(CCCn1c(SCC(=O)c2ccc(O)c(O)c2)nc2ccccc2c1=O)NCC1CCCO1 (stereo not drawn),–,active: 5.01 µM
Clc1cccc2c1Sc1ccccc1CC2N1CCNCC1 (stereo not drawn),inactive: 44.5%,–
CC1(C)CC(=O)C(C(c2ccco2)C2C(=O)CC(C)(C)CC2=O)C(=O)C1,–,active: 7.94 µM
O=C(COC(=O)c1ccc2c(c1Cl)C(=O)c1ccccc1C2=O)NC1CC1,–,active: 7.94 µM
COc1ccc(-c2cc(=O)c3cc(C)ccc3[nH]2)cc1,inactive: -21.4%,–
O=C(Nc1cccc2ccccc12)c1onc2c1CCCC2,inactive: 37.7%,–
CC1=C(C(=O)O)N2C(=O)C(NC(=O)C(N)c3ccccc3)C2SC1 (stereo not drawn),inactive: -10.2%,–
Brc1ccc(Cn2c(-c3ccc(Br)o3)nc3ccccc32)o1,inactive: 98.1%,–
CC1(C)S[C@@H]2[C@H](NC(=O)[C@H](N)c3ccccc3)C(=O)N2[C@H]1C(=O)O,inactive: -10.5% and inactive: -3.19% and inactive: -23.7%,–
NC(Cc1cc(I)c(Oc2ccc(O)c(I)c2)c(I)c1)C(=O)O (stereo not drawn),inactive: -24.5%,–
COCC(C)NC(=O)c1ccc(N(C)C)cc1 (stereo not drawn),–,active: 22.4 µM
Cc1cc(=O)c2cc(Br)ccc2[nH]1,inactive: 69.8%,–
O=C(O)c1ccccc1OP(=O)(O)O,inactive: -26.6%,–
Nc1cc(=O)[nH]c(=O)n1Cc1ccccc1,inactive: 2.74%,–
N=C(N)SCc1ccc(Cl)cc1Cl,inactive: -9.37%,–

Structure (SMILES),"activity change, negative = inhibition",Potency
COC(=O)[C@@]1(Cc2ccc(OC)cc2)[C@H]2c3cc(C(=O)N4CCCC4)n(Cc4ccc(C)o4)c3C[C@H]2CN1C(=O)c1ccccc1,inactive: -9.49%,–
Cc1cccc(NC(=O)c2ccc([N+](=O)[O-])o2)n1,inactive: 35.6%,–
Cc1csc2ncc(C(=O)Nc3ccc4c(c3)OCCO4)c(=O)n12,inactive: 99.5%,–
C[C@H](N)c1nnc(SCc2c(Cl)cccc2Cl)o1,–,active: 31.6 µM
COc1ccc2nc3c(c(-c4ccccc4)c2c1)CCC3,inactive: -21.9%,–
CC(C)OC(=O)C(C)(C)Oc1ccc(C(=O)c2ccc(Cl)cc2)cc1,inactive: -9.69% and inactive: -28.4% and inactive: -23.2%,–
CCOc1ccc(C(=O)Nc2nnc(C(C)C)s2)cc1OCC,–,active: 28.2 µM
O=C(COC(=O)c1ccccc1Nc1ccc(SC(F)F)cc1)NCc1ccco1,–,active: 14.1 µM
CCCCCC(O)c1cccc(OCc2ccc3ccccc3n2)c1 (stereo not drawn),inactive: -26.2% and inactive: -5.68%,–
N#C/C(=C/c1cn(-c2ccccc2)nc1-c1cccc(S(=O)(=O)N2CCOCC2)c1)C(=O)NCc1ccco1,inactive: 997%,–
Cc1ccc(/C=C(\C#N)C(=O)Nc2cccc3ncccc23)o1,–,active: 39.8 µM
COC(=O)Cc1c(C)c2ccc(OC(=O)c3ccccc3)cc2oc1=O,inactive: 37.3%,–
COc1c(C)c2c(c(O)c1C/C=C(\C)CCC(=O)O)C(=O)OC2,inactive: -24.7%,–
C=CCOC(=O)C1=C(C)NC(C)=C(C(=O)OCC=C)C1c1cn(-c2ccccc2)nc1-c1ccco1,inactive: 32.8%,–
COc1ccc2cc(CN(CC3CCCO3)S(=O)(=O)c3ccccc3)c(=O)[nH]c2c1 (stereo not drawn),inactive: 35.4%,–
Cc1cc(C)c2c(c1)C1C=CCC1C(c1ccc(S(=O)(=O)N3CCOCC3)cc1)N2 (stereo not drawn),inactive: -13.3%,–
CC(C)NCC(O)c1ccc(O)c(O)c1 (stereo not drawn),inactive: -5.4% [middle of 4 runs],–
Cc1noc(NS(=O)(=O)c2ccc(N/C=C/C(=O)c3ccc4c(c3)OCO4)cc2)c1C,inactive: -22.1%,–
CC(=O)Nc1ccc(N(CC(O)Cn2c3ccccc3c3ccccc32)S(=O)(=O)c2ccc(C)cc2)cc1 (stereo not drawn),inactive: 229%,–
CCn1c(C(=O)Nc2ccsc2C(=O)OC)cc2sc(Cl)cc21,inactive: 724%,–
CCOC(=O)C=Nc1c(N)n(C)c(=O)n(C)c1=O,inactive: 54%,–
COc1ccc(Cl)cc1NC(=O)c1cc(-c2ccccc2O)n[nH]1,–,active: 1.41 µM
